Results taken from PubChem BioAssay AID1466 (National Center for Advancing Translational Sciences (NCATS), 2008).
About 10 (0.005%) of roughly 200,000 compounds were called active. Inconclusive results, whose numbers are uncertain, are shown with a selection of clear calls. The call rests on the fitted dose curve; in most records, active means well fitted inhibition curve with a large enough effect; inconclusive means small, poorly fitted or top-dose-only effect, or effect the other way, or another doubt; inactive means no such curve, though single readings can be large or run the other way. A potency beside an inconclusive call is a rough fit, not a confirmed value.

What follows are molecules tested against Lysosomal alpha-glucosidase (Homo sapiens) (UniProt P10253) (assay: qHTS Assay for Inhibitors of Human alpha-Glucosidase as a Potential Chaperone Treatment of Pompe Disease). Conditions: purified human GAA, 4-MU-alpha-glucoside fluorescence; activity change, negative = inhibition: at 76.9 µM (top of the series) unless noted.
Summary of the method: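 Activity normalized between no-enzyme (basal) and enzyme-only wells. Conditions: 4 nM human enzyme, 400 uM fluorogenic substrate, citrate/phosphate pH 5.0 with Tween-20, 20 min room temperature, compounds up to 77 uM.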
Potency means the concentration at half of the fitted maximal effect; tags describe the fitted curve by direction and shape.
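Wherever activity change, negative = inhibition is given: plate controls were uninhibited enzyme wells for no effect and no-enzyme background for full effect.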

Activity change, negative = inhibition, inconclusive:
Nc1cc(C(F)(F)F)cc([N+](=O)[O-])c1N -17.7% [inhibitor], COc1ccc(NC(C)=O)cc1C#N 5.82% [activator], Cn1cc(C(=O)NCC2COc3ccccc3O2)c(=O)c2cc(S(=O)(=O)N3CCCCC3)ccc21 (stereo not given) -18.5% [inhibitor], Cc1[nH]nc2c1C(c1ccsc1C)C(C#N)=C(N)O2 (stereo not given) -17.4% [inhibitor], N#Cc1cc(-c2ccccc2)c[nH]c1=O 15.2% [activator], Cc1ccc(NC(=O)c2ncc(Cl)c(Cl)c2Cl)cc1C -15.1% [inhibitor], O=C(CCc1nnc(Cc2c[nH]c3ccccc23)o1)NC(C1CC1)C1CC1 18.7% [activator], Cc1ccc(S(=O)(=O)Oc2ccc(/C=N/NC(=O)c3cccnc3)cc2)cc1 16.6% [activator], COc1ccccc1NC(=O)CCN1CCN(C)CC1 15.5% [activator], Cc1cc(Cl)ccc1Oc1ncc(CN2CCN(c3ccccc3)CC2)s1 -16.2% [inhibitor], COc1ccc(CCNC(=O)C2CCN(C(=O)NC3CCCCC3)CC2)cc1 -15.5% [inhibitor], O=C(CSc1nnc(Cc2ccccc2)o1)c1ccccc1 15.3% [activator], Cc1cccc(C2CC3(CC(C)(C)NC(=S)N3)Oc3cc(O)ccc32)c1 (stereo not given) 7.68% [activator]

Potency, inconclusive:
O=C(C(Cl)Cl)N1c2ccccc2OCC1c1ccccc1 (stereo not given) 0.891 µM [inhibitor, full curve], COC(=O)c1c(NC(=O)CSc2nnnn2-c2ccccc2)sc2c1CCCC2 56.2 µM [inhibitor, single point], O=C(O)CCC(=O)N1CCc2cc(S(=O)(=O)N3CCC(Cc4ccccc4)CC3)ccc21 39.8 µM [inhibitor, single point], O=C1C=C(c2ccccc2)C(=O)N1Nc1ccccc1 56.2 µM [inhibitor, single point], O=C(CCC(=O)N1CCN(S(=O)(=O)c2ccc(Cl)cc2)CC1)Nc1cccc(Br)c1 25.1 µM [inhibitor, single point], COc1cccc(-c2cc(C(=O)Nc3c(C)nn(Cc4ccccc4)c3C)no2)c1 14.1 µM [inhibitor, partial curve], Cn1cccc1/C=C1\CCC/C(=C\c2cccn2C)C1=O 56.2 µM [inhibitor, single point], COCCOC(=O)c1c(C)oc2ccc(NS(=O)(=O)c3cccs3)cc12 0.398 µM [activator, full curve, poor fit], O=C(COC(=O)/C=C/c1ccc(F)cc1)Nc1cccc(S(=O)(=O)N2CCCC2)c1 56.2 µM [inhibitor, single point], CCOC(=O)c1ccc(NC(=S)N(CCCN2CCCC(C)C2)Cc2ccco2)cc1 (stereo not given) 39.8 µM [inhibitor, single point], CC1CCCCC1NCC(=O)NCc1ccc(F)cc1 (stereo not given) 50.1 µM [inhibitor, single point], O=C(c1ccco1)N1CCN(c2nc(C(F)(F)F)nc3c2nnn3Cc2ccccc2)CC1 56.2 µM [inhibitor, single point], Nc1ccc(-c2nc3ncccc3o2)c(Cl)c1 28.2 µM [activator, single point], COCCn1c(C)cc(C(=O)CSc2nncn2-c2ccccc2)c1C 50.1 µM [inhibitor, single point], COc1ccc(C(=O)OCCN2C(=O)c3ccccc3C2=O)cc1 3.98 µM [inhibitor, partial curve], C=CCn1c(=O)c(C#N)cc2c(=O)n3ccccc3nc21 35.5 µM [activator, partial curve], COc1ccc(-c2nn(-c3ccccc3)cc2/C=N/NC(=O)c2cccc(S(=O)(=O)Nc3ccccc3OC)c2)cc1 11.2 µM [inhibitor, single point], COc1ccc(N=c2oc3c(OC)cccc3cc2C(=O)NCc2ccco2)cc1OC 7.94 µM [inhibitor, partial curve], COc1ccc(-c2cc(-c3cccs3)nc(OC)c2C#N)cc1OC 39.8 µM [activator, single point], COc1cc(Br)cc2cc(C(=O)N3CCN(C(=O)c4ccco4)CC3)c(=O)oc12 6.31 µM [inhibitor, partial curve], Cc1cc2[nH]c3c(c[n+](C)c4ccccc34)c2cc1C 0.178 µM [inhibitor, full curve], O=C(COc1ccccc1)Nc1ccc(CN2CCCCC2)cc1 7.94 µM [inhibitor, partial curve], COc1cccc(C(=O)Nc2cccc(C(=O)N3CCOCC3)c2)c1 4.47 µM [inhibitor, single point], CCCc1nnc(NC(=O)c2cccc(OC)c2)s1 0.178 µM [inhibitor, full curve, poor fit], O=C(Cc1cc(=O)[nH][nH]1)N/N=C/c1c(Cl)cccc1Cl 8.91 µM [inhibitor, partial curve, poor fit], CC(=O)Nc1cccc(-c2nc3ccccc3s2)c1 12.6 µM [inhibitor, single point], COc1ccc(/C=C2\CN(Cc3ccccc3)C/C(=C\c3ccc(OC)cc3OC)C2=O)c(OC)c1 1.78 µM [inhibitor, full curve], COc1ccccc1-c1nc2ccccc2nc1-c1ccccc1 56.2 µM [inhibitor, single point], COc1ccc(/C=N/NC(=O)c2cccc(O)c2)cc1Cn1nc(C)c([N+](=O)[O-])c1C 6.31 µM [inhibitor, full curve], N#CCc1c(C#N)c(N)nc(N2CCN(S(=O)(=O)c3ccccc3)CC2)c1C#N 28.2 µM [inhibitor, single point], COc1cc2c(cc1C=O)OC(C)C2 (stereo not given) 0.178 µM [inhibitor, full curve, poor fit], COc1ccc(OC)c(/C=N\NC(=O)CC(=O)NCCc2ccccc2)c1 35.5 µM [activator, single point], COc1cc(NC(=S)NCc2cccnc2)c(OC)cc1Cl 0.398 µM [inhibitor, full curve, poor fit], COc1cc(CNCCSc2nnnn2C)cc(Br)c1OCc1ccc(F)cc1 28.2 µM [inhibitor, single point], Cc1nnc(NC(=O)c2ccc3ccccc3c2)o1 7.08 µM [inhibitor, full curve, poor fit], CNC(=O)c1cc2c(=O)n3cccc(C)c3nc2n(C(C)C)c1=N 35.5 µM [activator, partial curve], CCCCN(CCCC)Cc1ccc(C(=O)NNC(=O)Nc2ccc(Cl)cc2)o1 50.1 µM [inhibitor, single point], CCOc1cc(CN2CCCC(C(=O)c3cccc(C(F)(F)F)c3)C2)ccc1O (stereo not given) 50.1 µM [inhibitor, single point], CC(C)C(=O)Nc1c2c(nc3ccccc13)N(C)CC2 35.5 µM [activator, partial curve], COc1cc2c(C#N)c(N3CCN(c4ccccc4OC)CC3)nc(N)c2c(N)n1 25.1 µM [inhibitor, partial curve, poor fit], O=C(NCCCCNC(=O)c1ccc(Br)s1)c1ccc(Br)s1 25.1 µM [inhibitor, partial curve], O=C1C2CC=CCC2C(=O)N1c1ccc(NCCc2ccc(O)cc2)c([N+](=O)[O-])c1 (stereo not given) 50.1 µM [inhibitor, single point], O=C(COC(=O)CC1CC2CCC1C2)Nc1cccc(S(=O)(=O)NC2=NCCCCC2)c1 (stereo not given) 50.1 µM [inhibitor, single point], O=C1C(Nc2ccccc2)=C(NS(=O)(=O)c2ccccc2)C(=O)c2ccccc21 17.8 µM [inhibitor, single point], O=C(CSc1nc2ccccc2o1)N1CCN(S(=O)(=O)c2ccc3ccccc3c2)CC1 22.4 µM [inhibitor, partial curve], O=C(c1ccc(S(=O)(=O)N2CCOCC2)cc1)N1CCN(c2cccc(Cl)c2)CC1 22.4 µM [inhibitor, partial curve], CCCN1/C(=C2/SC(=S)N(CC)C2=O)C=Cc2ccccc21 31.6 µM [inhibitor, partial curve]

Potency, inactive:
Cc1ccc2nc(N3C(=O)C(O)=C(C(=O)c4ccc(C)o4)C3c3cccc(O)c3)sc2c1 (stereo not given), CCOC(=O)c1c(/N=C/c2ccc(O)cc2O)sc2c1CCC2, C/C(CCc1oc2c(Br)cc(Br)cc2c1-c1ccc(C)o1)=N\O, COCc1cccc(NC(=O)CCc2ccccc2)c1, CCCCNC(=O)c1ccc2nc(-c3ccco3)c(-c3ccco3)nc2c1
